Data: PubChem BioAssay AID1159614 (National Center for Advancing Translational Sciences (NCATS), 2016)
Screen size: about 45,000 compounds; about 65 (0.1%) were called active. The call rests on the fitted dose curve; in most records, active means well fitted activation curve with a large enough effect; inconclusive means small, poorly fitted or top-dose-only effect; inactive means no such curve, though single readings can be large or run the other way. This is one part of the list.

Target: Galactocerebrosidase (Homo sapiens) (UniProt P54803)
UniProt P54803, sequence (P54803 whole entry, looked up): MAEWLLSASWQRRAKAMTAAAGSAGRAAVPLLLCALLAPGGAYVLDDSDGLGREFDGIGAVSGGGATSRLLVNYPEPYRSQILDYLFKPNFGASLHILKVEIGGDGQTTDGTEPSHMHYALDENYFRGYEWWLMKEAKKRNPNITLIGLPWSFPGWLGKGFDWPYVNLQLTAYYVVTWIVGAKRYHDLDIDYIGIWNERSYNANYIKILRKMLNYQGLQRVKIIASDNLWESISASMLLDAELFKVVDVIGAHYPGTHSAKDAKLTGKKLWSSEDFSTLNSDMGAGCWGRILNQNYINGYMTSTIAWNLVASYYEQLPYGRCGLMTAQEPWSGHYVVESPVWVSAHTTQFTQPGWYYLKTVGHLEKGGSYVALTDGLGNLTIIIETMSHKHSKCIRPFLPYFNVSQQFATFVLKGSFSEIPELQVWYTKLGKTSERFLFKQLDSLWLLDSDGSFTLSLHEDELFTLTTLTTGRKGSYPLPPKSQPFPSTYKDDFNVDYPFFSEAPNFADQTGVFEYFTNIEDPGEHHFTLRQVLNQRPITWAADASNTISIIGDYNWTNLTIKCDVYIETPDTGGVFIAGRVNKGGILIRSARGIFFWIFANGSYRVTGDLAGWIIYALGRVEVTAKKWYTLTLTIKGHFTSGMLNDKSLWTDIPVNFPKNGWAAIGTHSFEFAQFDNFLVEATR
Assay: A Novel Cell-Based Assay to Identify Small Molecules for B -Galactocerebrosidase; further: 0% is about no effect; nearly all actives have a fitted effect of over 65% in size
Conditions: 145M-Twi-hGALC-G270D cells (Twitcher mouse brain line with human GALC G270D), HMU-beta-Gal fluorescence, 48 h; series mostly up to 57.5 µM; activation: at the top concentration
Outline: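 Fluorogenic HMU-b-Gal hydrolysis (0.1 mM final, pH 5.2 citrate-phosphate with 1 mg/mL sodium taurocholate; carbonate stop buffer) measures mutant GALC activity after compound treatment of live 145M-Twi Twitcher brain cells stably carrying human GALC-G270D, with wild-type GALC line alongside; activation sought.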

| SMILES | activation |
| --- | --- |
| NC(=O)C1(N2CCCCC2)CCN(C(=O)Nc2ccc(C(F)(F)F)cc2)CC1 | inactive: -4.46% |
| Cc1ccc(NCc2ccccc2-c2nnc(-c3ccccc3Cl)o2)c(C)c1 | inactive: -9.43% |
| CCS(=O)(=O)c1ncc(Cl)c(C(=O)N2CCN(c3cccc(Cl)c3)CC2)n1 | inactive: -11.3% |
| [O-][n+]1ccccc1SSc1cccc[n+]1[O-] | inactive: -8.19% [at 23.8 µM] |
| Cc1ccc(CNS(=O)(=O)c2cc(C(=O)Nc3cccc(C(F)(F)F)c3)ccc2F)cc1 | inactive: -23.4% |
| Cc1ccc2c(c1)c1c(c(=O)n(-c3ccccc3C)c(=O)n1CC(=O)NCc1ccccc1)n2C | inactive: -7.39% |
| COc1ccc(CC(=O)NCc2ccc3c(c2)CCN3C(=O)c2ccc(Cl)cc2)cc1OC | inactive: -8.59% |
| CN1CCCN=C1COC(=O)C(O)(c1ccccc1)C1CCCCC1 (stereo unspecified) | inactive: -5.72% |
| CCOC(=O)c1ccc(N2C(=O)c3n[nH]c(-c4cccs4)c3C2c2ccc(C(C)C)cc2)cc1 (stereo unspecified) | inactive: 2.15% |
| O=c1cc(-c2ccccc2)c2cc(Cl)c3c(c2o1)CN(Cc1ccccc1)CO3 | inactive: -21.8% |
| COc1ccccc1-c1cc(C(F)(F)F)nc(S(=O)(=O)CCCC(=O)Nc2cc(OC)c(OC)c(OC)c2)n1 | inactive: -3.05% |
| Cc1cc(C)c2c(=O)cc(CSc3nnc(COc4ccccc4C)n3C)[nH]c2c1 | inactive: -8.03% |
| COc1ccc(N(Cc2cccs2)C(=O)Nc2ccccc2)cc1 | inactive: -4.93% |
| COc1ccc(OC)c(NC(=O)CN2C(=O)c3ccccc3Sc3ccc(C(=O)N4CCCC4)cc32)c1 | inactive: -5.19% |
| Cc1cc(-c2ccc(C)c(S(=O)(=O)N(C)c3ccc(C)c(C)c3)c2)on1 | inactive: -11% |
| COc1ccccc1NC(=O)Cn1c(=O)n(Cc2ccco2)c(=O)c2cccnc21 | inactive: -21.4% |
| CCOC(=O)c1c(Oc2ccc(OC)cc2)nnc(-c2ccccc2)c1-c1ccccc1 | inactive: -10.6% |
| Cc1ccc(OCCCn2c(CCNC(=O)C3CCCCC3)nc3ccccc32)c(C)c1 | inactive: -3.37% |
| CN(C(=O)C(=O)Nc1ccc2nc3n(c(=O)c2c1)CCCCC3)c1cccc(C(F)(F)F)c1 | inactive: -3.67% |
| CCc1ccc(NC(=O)Cn2c(=O)oc3cc(S(=O)(=O)N4CCCCCC4)ccc32)cc1 | inactive: -8.17% |
| CC(C)Sc1ncc(Cl)c(C(=O)Nc2nnc(C(C)C)s2)n1 | inactive: -17% |
| Cc1onc(-c2ccc(F)cc2F)c1C(=O)Nc1cccc(C(F)(F)F)c1 | inactive: 10.3% |
| O=C(Nc1ccccc1)c1cccc(S(=O)(=O)Nc2cccc(F)c2)c1 | inactive: -13.3% |
| COc1cccc(-c2ccc3c(N)c(C(=O)NCc4ccc(Cl)cc4)sc3n2)c1 | inactive: 8.84% |

| SMILES | activation |
| --- | --- |
| CCc1ccc(CNC(=O)c2cc(-c3ccc(Br)s3)nc3ccccc23)cc1 | inactive: -2.93% |
| Cc1ccc(S(=O)(=O)N2CCOCC2)cc1C(=O)Nc1ccccc1C(=O)O | inactive: -9.47% |
| Cc1ccc2onc(CC(=O)N(C)c3ccccc3)c2c1 | inactive: -8.59% |
| COc1ccc(CCNC(=O)c2c(C)nn(-c3ccc(F)cc3)c2-n2cccc2)cc1OC | inactive: -23.8% |
| O=S(=O)(Nc1ccc2nc(-c3cccc(Cl)c3)oc2c1)c1ccccc1 | inactive: -31.7% |
| Cc1cccc(N2CCN(C3(c4ccccc4)C(=O)c4ccccc4C3=O)CC2)c1C | inactive: -20.6% |
| CC(=O)N[C@@H](CCC(N)=O)C(=O)O | inactive: -9.26% |
| Cc1nn(C)c2c1c(C(F)(F)F)cc(=O)n2Cc1cccc(Br)c1 | inactive: -2.17% |
| CCOC(=O)c1cc(-c2ccccc2)n(CCC(=O)Nc2ccc(Cl)c(C(F)(F)F)c2)c1C | inactive: -11% |
| Cc1cccc(NS(=O)(=O)c2ccc(-n3cccn3)cc2)c1C | inactive: -33.3% |
| C/C=C/C=N/NC(=O)c1ccncc1 | inactive: -11.5% |
| CC(C)CNc1nc(Oc2ccc(OCC(N)=O)nn2)nc(N2CCOCC2)n1 | inactive: 0.943% |
| CCOc1ccc(CNC(=O)c2ccc(NC(=O)N3CCCCc4ccccc43)cc2)cc1OC | inactive: -8.62% |
| CCn1cc(C(=O)NCc2ccc(C)cc2)c(=O)c2cc(S(=O)(=O)N3CCCCCC3)ccc21 | inactive: -2.94% |
| COc1ccccc1CNC(=O)c1ccc2nc(-c3ccccc3)c(-c3ccccc3)nc2c1 | inactive: -9.68% |
| O=C(CCc1nc2cccnc2n1Cc1cccs1)Nc1cccc(Cl)c1 | inactive: -6.67% |
| CCOc1ccc(-n2c(-c3ccccc3)c(C)n3c4c(=O)n(C)c(=O)n(C)c4nc23)cc1 | inactive: -7.08% |
| Cn1cc(S(=O)(=O)N2CCCCCC2)cc1C(=O)NCc1ccccc1Cl | inactive: -16.7% |
| CCCC(=O)NCC(c1ccc2c(c1)OCO2)N1CCN(c2ccccc2)CC1 (stereo unspecified) | inactive: -15.7% |
| CCOC(=O)N1CCc2c(sc(NCc3ccc(OC)c(OC)c3OC)c2C(=O)Nc2ccc(OC)cc2OC)C1 | inactive: -10.7% |
| CCc1ccc(-n2c(=O)c3sc4ccccc4c3n(Cc3cccc(F)c3)c2=O)cc1 | inactive: -15% |
| CCCCCOc1ccc(/C=C/C(=O)Nc2sc(C(C)=O)c(C)c2C(=O)OCC)cc1OC | inactive: -9.34% |
| CCc1nnc(NC(=O)c2nc(SCc3ccccc3C)ncc2Cl)s1 | inactive: 11.1% |
| CCCNC(=O)C1CCN(c2ncnc3c2nc2n3CCCCC2)CC1 | inactive: -8.61% |

| SMILES | activation |
| --- | --- |
| Cc1c(Cl)cccc1NC(=O)Cn1c(=O)nc(-c2ccccc2)c2ccccc21 | inactive: -10.7% |
| CC(=O)NO | inactive: -22% |
| Cc1oc(C)c2c(=O)cc(-c3ccc4c(c3)OCO4)cc(OC(=O)c3ccccc3Cl)c12 | inactive: -10.2% |
| COC(=O)c1cc(S(=O)(=O)NCC2CCN(Cc3cccc(F)c3)CC2)c[nH]1 | inactive: -13.2% |
| CCc1cc2c(cc3c(=O)n(CC(=O)NCCc4ccc(OC)c(OC)c4)ncn32)s1 | inactive: -10.5% |
| COc1ccc(-c2nc(CN3CCC(C(=O)NCCCOC(C)C)CC3)c(C)o2)cc1OC | inactive: 9% |
| COc1cccc(-n2cc(C(=O)NCc3ccccc3OC)c3ccccc3c2=O)c1 | inactive: -19.5% |
| COc1cccc(OCCSc2nc3ccccc3n2CC(=O)N2CCCCC2)c1 | inactive: -30.3% |
| Cc1ccccc1Cn1c(=O)n(CCc2ccccc2)c(=O)c2c(C)c(C)sc21 | inactive: -17.7% |
| COc1ccc(NC(=O)Cn2c(=O)n(Cc3nc(C)no3)c(=O)c3cc4c(cc32)OCO4)cc1OC | inactive: -6.86% |
| Cc1cccc(C)c1-n1ncc(C(=O)NCCN2CCOCC2)c1C1CCN(C(=O)OC(C)(C)C)CC1 | inactive: -1.91% |
| COC(=O)CSc1nc(-c2ccc(F)cc2)cc(C(F)(F)F)n1 | inactive: 12.7% |
| O=C(CCn1ccc2cc(S(=O)(=O)N3CCCC3)ccc21)NCc1cccc(F)c1 | inactive: -10.3% |
| COc1cc(OC)c(C2Nc3ccccc3-c3nnc(SCc4ccccc4)nc3O2)cc1OC (stereo unspecified) | inactive: -11.8% |
| COc1ccc(OC)c(C2N=C(N)Nc3nc4ccccc4n32)c1 (stereo unspecified) | inactive: -3.07% |
| Cc1ccc(C)c(NC(=O)CCn2nc(C)c3c(C)n(-c4ccccc4)nc3c2=O)c1 | inactive: 5.8% |
| Cc1nc(-c2ccc(Cl)cc2)sc1CCNC(=O)c1ccc(C(F)(F)F)cc1 | inactive: -13.4% |
| CCC1CCc2nc3sc(C(=O)Nc4ccc(F)c(Cl)c4)c(N)c3cc2C1 (stereo unspecified) | inactive: 3.27% |
| COc1ccccc1C(=O)OCc1cc(=O)n2nc(C3CC3)sc2n1 | inactive: -17.9% |
| Cc1ccc(C)c(NC(=O)c2ccc3c(c2)CCN3S(C)(=O)=O)c1 | inactive: 4.91% |
| Cc1cccc(-c2nn3c(=O)cc(CN4CCN(S(=O)(=O)c5ccc(Cl)cc5)CC4)nc3s2)c1 | inactive: -8.36% |
| CCC(C(=O)Nc1ccccc1C(=O)OC)n1nc(C)c2c(C)n(-c3ccc(C)cc3)nc2c1=O (stereo unspecified) | inactive: -0.7% |
| Cc1c(Cl)cccc1NC(=O)C(C)n1c(=O)cc(-c2ccccc2)c2c(C)nn(C)c21 (stereo unspecified) | inactive: -16.9% |
| COc1ccc(NC(=O)C(c2ccc(C)cc2)N(C)C(=O)Cc2cccs2)cc1 (stereo unspecified) | inactive: -13.1% |

| SMILES | activation |
| --- | --- |
| COc1ccccc1CNC(=O)CSc1ncc2c(n1)-c1ccc(Cl)cc1N(Cc1ccccc1)S2(=O)=O | inactive: -21.8% |
| CCOc1ccccc1C(=O)N1CC(=O)Nc2ccc(Cl)cc2C1c1ccccc1 (stereo unspecified) | inactive: -18.2% |
| COc1ccc(-c2cccc(NS(=O)(=O)c3cc(C)c(OC)c(C)c3C)c2)nn1 | inactive: -13.5% |
| O=C(Cn1c(=O)c2cc(Cl)ccc2n2nncc12)Nc1ccccc1 | inactive: -5.96% |
| Cc1ccc(NC(=O)C2CCCN2S(=O)(=O)c2ccc3c(c2)CCCC(=O)N3)cc1C (stereo unspecified) | inactive: -1.82% |
| O=C(Cn1c(-c2cccs2)cc2cc(Cl)ccc21)N1CCN(c2ccccc2)CC1 | inactive: -25.9% |
| CCc1ccc(NC(=O)c2sc3nc(C)c(Cl)c(C)c3c2N)cc1 | inactive: -7.61% |
| CCc1ccc(-c2nc(CN3CCCC(C(=O)N4CCN(c5cc(Cl)ccc5C)CC4)C3)c(C)o2)cc1 (stereo unspecified) | inactive: -41.1% |
| COc1ccc(Cl)cc1NC(=O)CN(C)S(=O)(=O)c1ccc2c(c1)CCCN2C(C)=O | inactive: -7.05% |
| CC(CNC(=O)Cn1ccc2cc(S(=O)(=O)N3CCCCCC3)ccc21)c1ccccc1 (stereo unspecified) | inactive: -8.55% |
| CC(=O)Nc1cc(C(=O)NCc2ccc(C)cc2)ccc1Sc1ccc(C)cc1 | inactive: -14% |
| O=C(CC(c1cccs1)N1Cc2ccccc2C1=O)Nc1ccc(F)c(Cl)c1 (stereo unspecified) | inactive: 11.7% |
| C=CCC(CC=C)(CNC(=O)C(=O)Nc1cccc(C(F)(F)F)c1)c1ccccc1 | inactive: 4.8% |
| Cc1ccc(Oc2c(C(F)(F)F)oc3cc(OCC(=O)NC4CCCCC4)ccc3c2=O)cc1 | inactive: 2.7% |
| CCc1cccc(C)c1NC(=O)CSc1nc(C)cc(C)c1C(=O)Nc1ccccc1 | inactive: -3.07% |
| CCCN1C(=O)C(O)(CC(=O)c2ccc(CC)cc2)c2ccccc21 (stereo unspecified) | inactive: -16.3% |
| Cc1cccc(-n2c(=O)c3c(c4cc(C)ccc4n3C)n(CC(=O)NCCC3=CCCCC3)c2=O)c1 | inactive: -4.94% |
| COc1ccc(-c2noc(-c3cccnc3NCc3ccco3)n2)cc1 | inactive: -6.51% |
| COc1ccc(-c2onc(C)c2C)cc1S(=O)(=O)NCC1CCN(Cc2ccccc2F)CC1 | inactive: -8.45% |
| CCOC(=O)CSc1nc2ccccc2c(=O)n1CCc1ccc(OC)c(OC)c1 | inactive: -9.19% |
| CCC1CN(C(=O)N2CCC(C(=O)NCCN(CC)CC)CC2)c2ccccc2O1 (stereo unspecified) | inactive: -10.5% |
| CCOC(=O)c1cc(-c2ccc(OC)c(S(=O)(=O)Nc3ccc(OC)cc3OC)c2)on1 | inactive: -17.8% |
| Cc1ccc(CNC(=O)c2nnc(Cc3cccc(F)c3)o2)cc1 | inactive: -15.8% |
| CCc1cccc(CC)c1NS(=O)(=O)c1ccc2c(c1)CCN2C(=O)C1CC1 | inactive: -2.72% |
